Source: PubChem BioAssay AID1508624 (National Center for Advancing Translational Sciences (NCATS), 2021)
About 120 (0.25%) of roughly 48,000 compounds were called active. Not shown: some 4% with an inconclusive outcome. Calls follow the shape of the dose curve; as a rule, active = well fitted activation curve with a large enough effect; inconclusive = small, poorly fitted or top-dose-only effect, or another doubt; inactive = no such curve, though single readings can be large or run the other way. The list shows a part of the results.

Experiment: Primary qHTS for Identification of Small Molecule Activators of Huntingtin-Antisense Promoter Activity; also: nearly all actives have a fitted effect of over 55% in size
Conditions: HEK293 HTT-AS promoter firefly luciferase reporter, 24 h; series mostly up to 57.5 µM; activity change, positive = activation: at the top concentration
Method in brief: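 Firefly luciferase signal from promoter-reporter HEK293 cells was scaled between vehicle (0%) and zero RLU (-100%). Compounds were tested at final concentrations of up to 57.5 uM over 24 h at 37 degrees C. PTC124 at 50 uM final served as control inhibitor.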

Activity change, positive = activation, inactive:
O=C(NC1(C(F)(F)F)C(=O)Nc2c1c(=O)[nH]c(=O)n2-c1ccc(Cl)cc1)c1ccccc1F (stereo not given) -5.14%, COc1ccc(Cn2cc(S(=O)(=O)c3ccc(Cl)cc3)c(=O)c3cc4c(cc32)OCO4)cc1 -8.36%, CC(C)CNC(=O)N1[C@H](c2cccs2)[C@@H](C)C(=O)[C@@H](C)[C@@H]1c1cccs1 -16.4%, CCn1c(=N)n(CCOc2ccc(Br)cc2)c2ccccc21 -32.7%, COc1ccc(C)cc1NS(=O)(=O)c1c(C(=O)N2CCCCCC2)c(C)n(C)c1C -12.1%, COc1ccc(CC(=O)NCCc2csc(-c3cccc(C)c3)n2)cc1 -24.6%, CC(C)OCCCNC(=O)Cn1ccc2cc(S(=O)(=O)N3CCCCCC3)ccc21 -21.2%, Cc1oc(-c2ccccc2Cl)nc1Cn1c(SCc2cccc(F)c2)nc2cccnc21 -19.7%, CC(=O)c1cccc(NC(=O)CC(c2ccc(C)cc2)N2Cc3ccccc3C2=O)c1 (stereo not given) -29.2%, Cc1nc(-c2ccccc2)sc1-c1ccc(SCC(=O)NCc2ccc(Cl)cc2)nn1 5.81%, CCN(C(=O)Nc1cn(CC(C)C)c(=O)c2ccccc12)c1cc(C)ccc1C -17.3%, Cc1ccc2nc(Nc3ccc(C)c(F)c3)c3nncn3c2c1 1.27%, Cc1ccc(CNC(=O)CCn2cnc3ccccc3c2=O)cc1 4.59%, Cc1c(Cl)cccc1NC(=O)C1CCN(c2ncnc3c2nc2n3CCCCC2)CC1 -17%, CCn1nc(C)c(CCN(C)C(=O)Nc2cc(OC)c(OC)c(OC)c2)c1C 0.688%, O=C(CS(=O)Cc1ccco1)NCC=CCOc1cc(CN2CCCCC2)ccn1 (stereo not given) -51.5%, Cc1ccc(N2CC(NC(=O)c3ccc(S(=O)(=O)N4CCOCC4)cc3)CC2=O)cc1 (stereo not given) -14.9%, CCOC(=O)c1cnn(-c2ccc(C(=O)Nc3cccc(C(C)=O)c3)cc2)c1N 12%, COc1ccc2cc(C(=O)NCc3ccc4c(c3)CCN4C(=O)c3ccc(F)cc3)[nH]c2c1 -2.57%, O=C(COCc1cc(-c2cccs2)on1)N1CCN(c2cccc(Cl)c2)CC1 -24.7%, O=C(CCn1c(=O)c2cccn2c2cccnc21)N1CCN(c2ccccc2F)CC1 -10.6%, Fc1cccc(-c2nnn3c2nc(NCCc2ccccc2)c2ccccc23)c1 10.9%, O=C(NC1CCCC1)c1ccc2c(c1)N(Cc1ccccc1)C(=O)c1ccccc1S2 -24%, CC1CCN(c2nc3ccc(C(=O)NCc4ccccc4Cl)cc3s2)CC1 -80.6%, CC(C)(C(=O)c1cccnc1)c1cccnc1 -4.31%, COC(=O)Nc1ccc(-c2nc(N3CCOCC3)c3cnn(C4CCN(Cc5cccnc5)CC4)c3n2)cc1 -29.1%, Cc1ccc(F)cc1NC(=O)Cn1c(C)cc(C)c(C#N)c1=O -3.81%, COc1ccc(N2CCN(Cc3nc4c(c(=O)[nH]c(=O)n4C)n3CC(C)C)CC2)cc1 -10.6%, O=C(NCc1cccc(Br)c1)c1ccc(NC(=O)N2CCCCc3ccccc32)cc1 -18.3%, C[C@H](O)[C@@H]1C(=O)N2C(C(=O)O)=C(S[C@@H]3CN[C@H](CNS(N)(=O)=O)C3)[C@@H](C)[C@@H]12 -4.44%, Cc1ccc(S(=O)(=O)c2nnn3c2nc(NCCc2ccccc2)c2sccc23)cc1 -40.9%, Cc1ccc(-n2nc3c(=O)n(CC(=O)NCCC(C)C)nc(C)c3c2C)cc1 -14.6%, CC(CNC(=O)c1nnc(Cc2ccc(F)cc2)o1)c1ccccc1 (stereo not given) -26.3%, Nc1ncn([C@H]2C[C@H](O)[C@@H](CO)O2)c(=O)n1, COc1cc2ncc(C(=O)c3ccc(C)cc3)c(N3CCCCC3)c2cc1OC -36%, COCCCNC(=O)Cn1c(=O)nc(-c2ccccc2)c2ccccc21 0.413%, NCCCCNCCCN 14.5%, CCCCC12CN3CC(C)(CN(C1)C3c1ccc(O)c(OC)c1)C2=O (stereo not given) 0.462%, COc1ccc(Cn2cc(C(=O)c3ccc(C)c(C)c3)c(=O)c3ccccc32)cc1 -20.2%, CCOc1ccc(CCNC(=O)c2cc(C)nc3c2c(C)nn3-c2cccc(F)c2)cc1 -23.7%, O=C(Cn1cc(S(=O)(=O)Cc2cccc(Cl)c2)c2ccccc21)Nc1ccccc1Cl -26.1%, C[C@@H](c1ncncc1F)C(O)(Cn1cncn1)c1ccc(F)cc1F (stereo not given in full) -3.69%, Cc1cccc(NC(=O)COc2ccc(-c3nn(C)c(=O)c4ccccc34)cc2)c1 -30.8%, COC(=O)c1ccccc1NC(=O)CSc1nc(=O)cc(N)n1-c1ccccc1 -5.86%, C[C@@H]1O[C@@H](O[C@H]2CC[C@@]3(C)[C@H](CC[C@@H]4[C@H]3C[C@@H](O)[C@]3(C)[C@@H](C5=CC(=O)OC5)CC[C@]43O)C2)C[C@H](O)[C@@H]1O[C@H]1C[C@H](O)[C@H](O[C@H]2C[C@H](O)[C@@H](O)[C@@H](C)O2)[C@H](C)O1 (stereo in doubt) -51.3% [at 116 µM, percent change from vehicle, -100% = no light], CCOc1ccc(NC(=O)CSc2nnc(-c3ccc(OCC)cc3)o2)cc1 -79.8%, Cc1ccc(NC(=O)Cn2c(=O)n(Cc3nc(-c4ccccc4)no3)c(=O)c3ccccc32)cc1C -17.5%, Cc1ccc(CNC(=O)c2c(-c3ccccc3Cl)noc2C)o1 -14.6%, Cc1coc2cc3oc(=O)c(CC(=O)NCc4cccc(Cl)c4)c(C)c3cc12 -27.4%, COc1ccc(CNC(=O)Nc2ccc3c(c2)N(C)C(=O)c2ccccc2S3)cc1OC -28.8%, COc1cc(OC)c(NC(=O)CN2CCCN(Cc3ccccc3C)S2(=O)=O)cc1Cl -18.5%, CN1CC(=O)NC1=N 0.545%, Cc1ccccc1C(=O)Nc1c(C)nc2ccccn2c1=O -4.87%, Cn1c(=O)oc2cc(S(=O)(=O)N3CCCC(C(=O)NCCc4ccccc4)C3)ccc21 (stereo not given) -21.6%, Cc1ccc(CNC(=O)c2c[nH]n3c(=O)c(Cc4ccc(Cl)cc4)c(C)nc23)cc1 -24.1%, Cc1c(C)c2c(c(C)c1OC(=O)CCC(=O)OCCO)CC[C@@](C)(CCC[C@H](C)CCC[C@H](C)CCCC(C)C)O2 -24.9%, O=C(NCCc1ccccc1)c1nn(-c2ccc(F)cc2)nc1CO -9.89%, Cc1cccc(CNC(=O)c2ccc3nc(Cc4ccccc4)oc3c2)c1 4.68%, CCOc1ccc(C2c3[nH]c4ccccc4c3CCN2C(=O)CSCc2ccc(F)cc2)cc1 (stereo not given) -32%, Cc1cc(S(=O)(=O)NCC(c2ccco2)S(=O)(=O)c2cccs2)ccc1F (stereo not given) -4.33%
